{"source": "PubChem BioAssay AID1347077", "about": "(National Center for Advancing Translational Sciences (NCATS), 2019)", "note": "The whole screen tested about 44,000 compounds, of which fewer than 10 were called active. Inconclusive means that the source gave no clear call. Such entries were picked first, then a sample of the others. Calls come from the whole dose curve; as a rule, active = well fitted activation curve with a large enough effect; inconclusive = small, poorly fitted or top-dose-only effect, or another doubt; inactive = no such curve, though single readings can be large or run the other way. Potencies of inconclusive entries are left out as doubtful fits. Potency is the fitted concentration of half-maximal effect; tags give direction and shape of the fitted curve."}
{"target": "Beta-2 adrenergic receptor (Homo sapiens) (UniProt P07550)", "sequence (P07550 whole entry, looked up)": "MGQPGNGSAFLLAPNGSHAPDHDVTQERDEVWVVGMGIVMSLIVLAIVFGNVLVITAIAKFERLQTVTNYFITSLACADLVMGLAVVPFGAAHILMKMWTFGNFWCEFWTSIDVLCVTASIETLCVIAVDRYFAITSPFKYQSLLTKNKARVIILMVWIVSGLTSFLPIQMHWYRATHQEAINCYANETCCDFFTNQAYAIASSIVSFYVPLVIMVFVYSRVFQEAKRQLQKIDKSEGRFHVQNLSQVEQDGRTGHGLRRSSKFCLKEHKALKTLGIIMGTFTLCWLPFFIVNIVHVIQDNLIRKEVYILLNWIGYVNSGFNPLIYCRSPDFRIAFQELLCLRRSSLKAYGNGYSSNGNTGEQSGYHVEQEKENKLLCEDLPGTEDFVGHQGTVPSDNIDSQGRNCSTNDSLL", "assay": "qHTS assay of beta-arrestin-biased ligands of beta2-adrenergic receptor: NCGC Sytravon Library Screen", "conditions": "HTLA Tango cells, beta-arrestin recruitment, luciferase luminescence, 18 h; series mostly up to 46.1 µM", "how_it_was_run": "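Tango cells (recombinant beta2-AR, beta-arrestin, tTA-driven luciferase), 1500/well in DMEM 1% FBS, treated 18 h at 37 °C with compounds up to 46 µM; luciferin mix added, luminescence read after 15 min; %activity curves fitted and curve-classed.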"}
{"smiles": "CC(C)c1ccc(-c2noc(SCC(=O)N3CCN(c4ccc(F)cc4)CC3)n2)cc1", "Potency": "inconclusive [activator, partial curve, poor fit]"}
{"smiles": "Cc1cccc(C(c2sc3nc(-c4ccco4)nn3c2O)N2CCN(Cc3ccccc3)CC2)c1", "note": "(configuration not stated)", "Potency": "inconclusive [activator, single point]"}
{"smiles": "Cc1ccc2cc3cc(C(=O)N4CCN(c5cccc(C(F)(F)F)c5)CC4)sc3nc2c1", "Potency": "inactive"}
{"smiles": "CC(C)c1nnc(NC(=O)c2nc(SCc3ccc(F)cc3)ncc2Cl)s1", "Potency": "inactive"}
{"smiles": "COc1ccc(NC(=O)CSc2nnc(NC(=O)NC3CCCCC3)s2)cc1OC", "Potency": "inconclusive [activator, single point]"}
{"smiles": "Cc1cc(C)cc(NS(=O)(=O)c2ccc3[nH]cc(C(=O)NC4CCCCC4)c(=O)c3c2)c1", "Potency": "inactive"}
{"smiles": "CCn1cc(S(=O)(=O)c2ccccc2)c(=O)c2cc(F)c(N3CCCC3)cc21", "Potency": "inconclusive [activator, single point]"}
{"smiles": "CCOC(=O)c1ccccc1NC(=O)Cn1c(=O)n(-c2ccc(CC)cc2)c(=O)c2c(C)c(C(=O)N(C)C)sc21", "Potency": "inconclusive [activator, single point]"}
{"smiles": "COCCCN1C(=O)c2[nH]nc(-c3cc(C)ccc3O)c2C1c1ccc(F)cc1", "note": "(configuration not stated)", "Potency": "inconclusive [activator, partial curve, poor fit]"}
{"smiles": "Cc1ccc(S(=O)(=O)Nc2cccc(-c3ccc(N4CCCC4)nn3)c2)c(C)c1", "Potency": "inconclusive [activator, partial curve, poor fit]"}
{"smiles": "O=C(Nc1ccc(Oc2ccccc2)cc1)c1ccc(F)c(S(=O)(=O)N2CCN(c3ccccc3F)CC2)c1", "Potency": "inactive"}
{"smiles": "O=C(C1CCC(CNS(=O)(=O)c2cccs2)CC1)N1CCN(c2ccc(Cl)cc2)CC1", "note": "(configuration not stated)", "Potency": "inconclusive [activator, single point]"}
{"smiles": "COCCCN1C(=O)c2[nH]nc(-c3ccccc3O)c2C1c1ccc(OC)cc1", "note": "(configuration not stated)", "Potency": "inconclusive [activator, single point]"}
{"smiles": "Fc1ccc(-n2ncc3c(NCCCc4ccccc4)ncnc32)cc1", "Potency": "inactive"}
{"smiles": "COc1cc(OC)cc(C(=O)Nc2ccc(S(=O)(=O)N3CCCCC3c3cccnc3)cc2)c1", "note": "(configuration not stated)", "Potency": "inconclusive [activator, single point]"}
{"smiles": "Cc1cccc(-c2c3c(=O)n(C)c(=O)n(C)c3cn2-c2cc(N)c(Cl)cc2Cl)c1", "Potency": "inconclusive [activator, full curve, poor fit]"}
{"smiles": "COc1ccc(-c2cccc(NS(=O)(=O)c3cc(C)c(OC)c(C)c3C)c2)nn1", "Potency": "inactive"}
